From patent publication US20140271457A1 (AbbVie / Abbott, published 2014)

B1: DVD3009 (bispecific antibody, human IgG1, kappa)
heavy: EVQLVQSGAEVKKPGASVKVSCKASGYTFNNYGIIWVRQAPGQGLEWMGWINTYTGKPTYAQKFQGRVTMTTDTSTSTAYMELSSLRSEDTAVYYCARKLFNTVAVTDNAMDYWGQGTTVTVSSASTKGPEVTLRESGPGLVKPTQTLTLTCTLYGFSLSTSDMGVDWIRQPPGKGLEWLAHIWWDDVKRYNPALKSRLTISKDTSKNQVVLKLTSVDPVDTATYYCARTVSSGYIYYAMDYWGQGTLVTVSS[here human IgG1 constant region without letters]
light: DIQMTQSPSSLSASVGDRVTITCRASQDIENYLNWYQQKPGKAPKLLIYYTSRLQSGVPSRFSGSGSGTDFTLTISSLQPEDFATYFCQQGNTQPPTFGQGTKLEIKRTVAAPDIQMTQSPSSLSASVGDRVTISCRASQDIRNYLNWYQQKPGKAPKLLIFYTSKLHSGVPSRFSGSGSGTDYTLTISSLQPEDIATYYCQQGLTPPLTFGGGTKVEIKRTVAAPSVFIFPPSDEQLKSGTASVVCLLNNFYPREAKVQWKVDNALQSGNSQESVTEQDSKDSTYSLSSTLTLSKADYEKHKVYACEVTHQGLSSPVTKSFNRGEC
B2: DVD3012 (bispecific antibody, human IgG1, kappa)
heavy: EVQLVQSGAEVKKPGASVKVSCKASGYTFNNYGIIWVRQAPGQGLEWMGWINTYTGKPTYAQKFQGRVTMTTDTSTSTAYMELSSLRSEDTAVYYCARKLFNTVAVTDNAMDYWGQGTTVTVSSASTKGPSVFPLAPEVTLRESGPGLVKPTQTLTLTCTLYGFSLSTSDMGVDWIRQPPGKGLEWLAHIWWDDVKRYNPALKSRLTISKDTSKNQVVLKLTSVDPVDTATYYCARTVSSGYIYYAMDYWGQGTLVTVSS[here human IgG1 constant region without letters]
light: B1 light
B3: DVD3011 (bispecific antibody, human IgG1, kappa)
heavy: B1 heavy
light: DIQMTQSPSSLSASVGDRVTITCRASQDIENYLNWYQQKPGKAPKLLIYYTSRLQSGVPSRFSGSGSGTDFTLTISSLQPEDFATYFCQQGNTQPPTFGQGTKLEIKRTVAAPSVFIFPPDIQMTQSPSSLSASVGDRVTISCRASQDIRNYLNWYQQKPGKAPKLLIFYTSKLHSGVPSRFSGSGSGTDYTLTISSLQPEDIATYYCQQGLTPPLTFGGGTKVEIKRTVAAPSVFIFPPSDEQLKSGTASVVCLLNNFYPREAKVQWKVDNALQSGNSQESVTEQDSKDSTYSLSSTLTLSKADYEKHKVYACEVTHQGLSSPVTKSFNRGEC
B4: DVD3144 (bispecific antibody, human IgG1, kappa)
heavy: EVQLVESGGGLVQPGGSLRLSCAASGFTFSNYGVTWVRQAPGKGLEWVSMIWADGSTHYASSVKGRFTISRDNSKNTLYLQMNSLRAEDTAVYYCAREWQHGPVAYWGQGTLVTVSSASTKGPEVQLVQSGAEVKKPGASVKVSCKASGYTFTSYWMHWVRQAPGQGLEWIGNINPKGGSNIYNEKFQGRVTMTRDTSISTAYMELSRLRSDDTAVYYCARLDYFGDSFDLWGQGTTVTVSS[here human IgG1 constant region without letters]
light: DIQMTQSPSSLSASVGDRVTITCRASQLVSSAVAWYQQKPGKAPKLLIYWASARHTGVPSRFSGSGSGTDFTLTISSLQPEDFATYYCQQHYKTPFTFGQGTKLEIKRTVAAPDIQMTQSPSSLSASVGDRVTITCRASQGIRNYLNWYQQKPGKAPKLLIYYASNLEVGVPSRFSGSGSGTDYTLTISSLQPEDFATYYCQQDNRFPYTFGGGTKVEIKRTVAAPSVFIFPPSDEQLKSGTASVVCLLNNFYPREAKVQWKVDNALQSGNSQESVTEQDSKDSTYSLSSTLTLSKADYEKHKVYACEVTHQGLSSPVTKSFNRGEC
B5: DVD3146 (bispecific antibody, human IgG1, kappa)
heavy: B4 heavy
light: DIQMTQSPSSLSASVGDRVTITCRASQLVSSAVAWYQQKPGKAPKLLIYWASARHTGVPSRFSGSGSGTDFTLTISSLQPEDFATYYCQQHYKTPFTFGQGTKLEIKRTVAAPSVFIFPPDIQMTQSPSSLSASVGDRVTITCRASQGIRNYLNWYQQKPGKAPKLLIYYASNLEVGVPSRFSGSGSGTDYTLTISSLQPEDFATYYCQQDNRFPYTFGGGTKVEIKRTVAAPSVFIFPPSDEQLKSGTASVVCLLNNFYPREAKVQWKVDNALQSGNSQESVTEQDSKDSTYSLSSTLTLSKADYEKHKVYACEVTHQGLSSPVTKSFNRGEC
B6: DVD3147 (bispecific antibody, human IgG1, kappa)
heavy: EVQLVESGGGLVQPGGSLRLSCAASGFTFSNYGVTWVRQAPGKGLEWVSMIWADGSTHYASSVKGRFTISRDNSKNTLYLQMNSLRAEDTAVYYCAREWQHGPVAYWGQGTLVTVSSASTKGPSVFPLAPEVQLVQSGAEVKKPGASVKVSCKASGYTFTSYWMHWVRQAPGQGLEWIGNINPKGGSNIYNEKFQGRVTMTRDTSISTAYMELSRLRSDDTAVYYCARLDYFGDSFDLWGQGTTVTVSS[here human IgG1 constant region without letters]
light: B4 light
B7: DVD3154 (bispecific antibody, human IgG1, kappa)
heavy: B4 heavy with T35E, M50G, S61D, S62T, G65S
light: B4 light with R24K, A53T, R54L, K93R
B8: DVD3157 (bispecific antibody, human IgG1, kappa)
heavy: B6 heavy with T35E, M50G, S61D, S62T, G65S
light: B4 light with R24K, A53T, R54L, K93R
B9: DVD3156 (bispecific antibody, human IgG1, kappa)
heavy: B4 heavy with T35E, M50G, S61D, S62T, G65S
light: B5 light with R24K, A53T, R54L, K93R
B10: DVD3143 (bispecific antibody, human IgG1, kappa)
heavy: EVQLVESGGGLVQPGGSLRLSCAASGFTFSNYGVTWVRQAPGKGLEWVSMIWADGSTHYASSVKGRFTISRDNSKNTLYLQMNSLRAEDTAVYYCAREWQHGPVAYWGQGTLVTVSSGGGGSGGGGSEVQLVQSGAEVKKPGASVKVSCKASGYTFTSYWMHWVRQAPGQGLEWIGNINPKGGSNIYNEKFQGRVTMTRDTSISTAYMELSRLRSDDTAVYYCARLDYFGDSFDLWGQGTTVTVSS[here human IgG1 constant region without letters]
light: DIQMTQSPSSLSASVGDRVTITCRASQLVSSAVAWYQQKPGKAPKLLIYWASARHTGVPSRFSGSGSGTDFTLTISSLQPEDFATYYCQQHYKTPFTFGQGTKLEIKRGGSGGGGSGDIQMTQSPSSLSASVGDRVTITCRASQGIRNYLNWYQQKPGKAPKLLIYYASNLEVGVPSRFSGSGSGTDYTLTISSLQPEDFATYYCQQDNRFPYTFGGGTKVEIKRTVAAPSVFIFPPSDEQLKSGTASVVCLLNNFYPREAKVQWKVDNALQSGNSQESVTEQDSKDSTYSLSSTLTLSKADYEKHKVYACEVTHQGLSSPVTKSFNRGEC
B11: DVD3153 (bispecific antibody, human IgG1, kappa)
heavy: B10 heavy with T35E, M50G, S61D, S62T, G65S
light: B10 light with R24K, A53T, R54L, K93R
B12: DVD3163 (bispecific antibody, human IgG1, kappa)
heavy: EVQLVQSGAEVKKPGASVKVSCKASGYTFANYGIIWVRQAPGQGLEWMGWINTYTGKPTYAQKFQGRVTMTTDTSTSTAYMELSSLRSEDTAVYYCARKLFTTMDVTDNAMDYWGQGTTVTVSSGGGGSGGGGSEVQLVQSGAEVKKPGASVKVSCKASGYTFTSYWMHWVRQAPGQGLEWIGNINPKGGSNIYNEKFQGRVTMTRDTSISTAYMELSRLRSDDTAVYYCARLDYFGDSFDLWGQGTTVTVSS[here human IgG1 constant region without letters]
light: DIQMTQSPSSLSASVGDRVTITCRASQDISQYLNWYQQKPGKAPKLLIYYTSRLQSGVPSRFSGSGSGTDFTLTISSLQPEDFATYFCQQGNTWPPTFGQGTKLEIKRGGSGGGGSGDIQMTQSPSSLSASVGDRVTITCRASQGIRNYLNWYQQKPGKAPKLLIYYASNLEVGVPSRFSGSGSGTDYTLTISSLQPEDFATYYCQQDNRFPYTFGGGTKVEIKRTVAAPSVFIFPPSDEQLKSGTASVVCLLNNFYPREAKVQWKVDNALQSGNSQESVTEQDSKDSTYSLSSTLTLSKADYEKHKVYACEVTHQGLSSPVTKSFNRGEC
notes: DVD-Ig: outer AB441 (TNF), inner AB399 (IL-13); linkers GS-H10/GS-L10; also called DVD3163H; DVD3163L
B13: DVD3173 (bispecific antibody, human IgG1, kappa)
heavy: B12 heavy with A30N, T102N, M104V, D105A
light: B12 light with S30E, Q31N, W94Q
B14: DVD3164 (bispecific antibody, human IgG1, kappa)
heavy: EVQLVQSGAEVKKPGASVKVSCKASGYTFANYGIIWVRQAPGQGLEWMGWINTYTGKPTYAQKFQGRVTMTTDTSTSTAYMELSSLRSEDTAVYYCARKLFTTMDVTDNAMDYWGQGTTVTVSSASTKGPEVQLVQSGAEVKKPGASVKVSCKASGYTFTSYWMHWVRQAPGQGLEWIGNINPKGGSNIYNEKFQGRVTMTRDTSISTAYMELSRLRSDDTAVYYCARLDYFGDSFDLWGQGTTVTVSS[here human IgG1 constant region without letters]
light: DIQMTQSPSSLSASVGDRVTITCRASQDISQYLNWYQQKPGKAPKLLIYYTSRLQSGVPSRFSGSGSGTDFTLTISSLQPEDFATYFCQQGNTWPPTFGQGTKLEIKRTVAAPDIQMTQSPSSLSASVGDRVTITCRASQGIRNYLNWYQQKPGKAPKLLIYYASNLEVGVPSRFSGSGSGTDYTLTISSLQPEDFATYYCQQDNRFPYTFGGGTKVEIKRTVAAPSVFIFPPSDEQLKSGTASVVCLLNNFYPREAKVQWKVDNALQSGNSQESVTEQDSKDSTYSLSSTLTLSKADYEKHKVYACEVTHQGLSSPVTKSFNRGEC
notes: DVD-Ig: outer AB441 (TNF), inner AB399 (IL-13); linkers HG-short/LK-short; also called DVD3164H; DVD3164L

target: Recombinant Human IL-13 (human, UniProt P35225 part only, limits assumed); experiment: cell-based or functional assay
Chain of UniProt P35225 (P35225 35-146 limits assumed): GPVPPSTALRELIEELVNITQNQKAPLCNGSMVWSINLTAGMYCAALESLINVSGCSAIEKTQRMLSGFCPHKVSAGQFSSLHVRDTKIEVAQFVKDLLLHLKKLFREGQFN

Binder	IL-13 Neutralization Assay IC50 [nM]
B1	0.563
B2	0.207
B3	0.242
B4	0.209
B5	0.051
B6	0.745
B7	0.175
B8	0.035
B9	0.062
B10	0.057
B11	0.064
B12	0.076
B13	0.079
B14	0.335

Residue numbers refer to the chain shown, from its start.
